Measured values reported in the supplement of paper PMC12217912.
This is one part of the list. The full chains were built here from the parent and the listed change. Inactive controls read about 0.05.

B1: TEV protease; numbered along this chain (parent)
chain: MGESLFKGPRDYNPISSSICHLTNESDGHTTSLYGIGFGPFIITNKHLFRRNNGTLVVQSLHGVFKVKDTTTLQQHLVDGRDMIIIRMPKDFPPFPQKLKFREPQREERICLVTTNFQTKSMSSMVSDTSCTFPSGDGIFWKHWIQTKDGQCGSPLVSTRDGFIVGIHSASNFTNTNNYFTSVPKNFMELLTNQEAQQWVSGWRLNADSVLWGGHKVFMVKPEEPFQPVKEATQL

Variants of: B1
Assay: raw area under fraction-flipped curve 0-4 h after induction (AUC4h, not background-subtracted), DNA-recorder readout of cleavage of the substrate (dimensionless); higher = more cleavage of the substrate by the protease variant
Conditions: temperature: 34 °C; time window: 0-4 h after rhamnose induction
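Also: Bxb1 expression induced with 0.2% (w/v) L-rhamnose at OD600 near 0.5, cultures sampled hourly, flipped fraction per protease–substrate barcode pair counted by paired-end Illumina sequencing.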

Which results are given for MGESLFKGPRDYNPISSSICHLTNESDGHTTSLYGIGFGPFIITNKHLFRRNNGTLVVQSLHGVFKVKDTTYLQQHLVDGRDMIIIRMPKDFPPFPQKLKFREPQREERICLVTTNFQTKSMSSMVSDTSCTFPSGDGIFWKHWIQTKDGQCGSPLVSTRDGFIVGIHSASNFTNTNNYFTSVPKNFMELLTNQEAQQWVSGWRLNADSVLWGGHKVFMVKPEEPFQPVKEATQL [T72Y]?
area with substrate ENCYFQS: 0.0636; area with substrate ENDYFQS: 0.0498; area with substrate ENEYFQS: 0.0607; area with substrate ENFYFQS: 0.0541; area with substrate ENGYFQS: 0.0623; area with substrate ENIYFQS: 0.0661; area with substrate ENMYFQS: 0.071; area with substrate ENNYFQS: 0.0513; area with substrate ENPYFQS: 0.0657; area with substrate ENQYFQS: 0.0666; area with substrate ENRYFQS: 0.065; area with substrate ENSYFQS: 0.0722; area with substrate ENTYFQS: 0.0592; area with substrate ENVYFQS: 0.0664; area with substrate ENYYFQS: 0.0408

With MGESLFKGPRDYNPISSSICHLTNESDGHTTSLYGIGFGPFIITNKHLFRRNNGTLVVQSLHGVFKVKDTTTLQQHLVDGREMIIIRMPKDFPPFPQKLKFREPQREERICLVTTNFQTKSMSSMVSDTSCTFPSGDGIFWKHWIQTKDGQCGSPLVSTRDGFIVGIHSASNFTNTNNYFTSVPKNFMELLTNQEAQQWVSGWRLNADSVLWGGHKVFMVKPEEPFQPVKEATQL [D82E] as the variant, how does the “area with substrate ENCYFQS” value read?
Its value is 0.0634.

And the “area with substrate ENDYFQS” value?
Its value is 0.0671.

What about the “area with substrate ENEYFQS” value of the same variant?
Its value is 0.0693.

And the “area with substrate ENFYFQS” value?
The value was 0.0755.

What about the “area with substrate ENHYFQS” value of the same variant?
Its value is 0.0607.

What about the “area with substrate ENIYFQS” value of the same variant?
Its value is 0.0815.

And the “area with substrate ENPYFQS” value?
Its value is 0.0682.

And the “area with substrate ENRYFQS” value?
Its value is 0.0637.

And the “area with substrate ENSYFQS” value?
The value was 0.0598.

What about the “area with substrate ENTYFQS” value of the same variant?
The value was 0.0981.

What about the “area with substrate ENVYFQS” value of the same variant?
The value was 0.0512.

What about the “area with substrate ENYYFQS” value of the same variant?
Its value is 0.0703.

With MGESLFKGPRDYNPISSSICHLTNESDGHTTSLYGIGFGPFIITNKHLFRRNNGTLVVQSLHGVFKVKDTTTLQQHLVDGRDAIIIRMPKDFPPFPQKLKFREPQREERICLVTTNFQTKSMSSMVSDTSCTFPSGDGIFWKHWIQTKDGQCGSPLVSTRDGFIVGIHSASNFTNTNNYFTSVPKNFMELLTNQEAQQWVSGWRLNADSVLWGGHKVFMVKPEEPFQPVKEATQL [M83A] as the variant, how does the “area with substrate ENCYFQS” value read?
The value was 0.0613.

And the “area with substrate ENDYFQS” value?
The value was 0.077.

What about the “area with substrate ENEYFQS” value of the same variant?
Its value is 0.0664.

What about the “area with substrate ENFYFQS” value of the same variant?
The value was 0.0684.

What about the “area with substrate ENGYFQS” value of the same variant?
The value was 0.0569.

What about the “area with substrate ENHYFQS” value of the same variant?
Its value is 0.0626.

And the “area with substrate ENIYFQS” value?
Its value is 0.0875.

What about the “area with substrate ENNYFQS” value of the same variant?
Its value is 0.0601.

What about the “area with substrate ENPYFQS” value of the same variant?
The value was 0.0474.

And the “area with substrate ENQYFQS” value?
The value was 0.0522.

And the “area with substrate ENRYFQS” value?
Its value is 0.0595.

And the “area with substrate ENSYFQS” value?
The value was 0.0583.

What about the “area with substrate ENTYFQS” value of the same variant?
The value was 0.0606.

What about the “area with substrate ENVYFQS” value of the same variant?
The value was 0.0634.

What about the “area with substrate ENWYFQS” value of the same variant?
The value was 0.0617.

What about the “area with substrate ENYYFQS” value of the same variant?
The value was 0.0575.

Which results are given for MGESLFKGPRDYNPISSSICHLTNESDGHTTSLYGIGFGPFIITNKHLFRRNNGTLVVQSLHGVFKVKDTTTLQQHLVDGRDSIIIRMPKDFPPFPQKLKFREPQREERICLVTTNFQTKSMSSMVSDTSCTFPSGDGIFWKHWIQTKDGQCGSPLVSTRDGFIVGIHSASNFTNTNNYFTSVPKNFMELLTNQEAQQWVSGWRLNADSVLWGGHKVFMVKPEEPFQPVKEATQL [M83S]?
area with substrate ENCYFQS: 0.0578; area with substrate ENDYFQS: 0.0605; area with substrate ENEYFQS: 0.0602; area with substrate ENFYFQS: 0.0642; area with substrate ENGYFQS: 0.0582; area with substrate ENHYFQS: 0.0531; area with substrate ENMYFQS: 0.0532; area with substrate ENNYFQS: 0.0585; area with substrate ENPYFQS: 0.0635; area with substrate ENQYFQS: 0.0548; area with substrate ENRYFQS: 0.0566; area with substrate ENSYFQS: 0.0595; area with substrate ENVYFQS: 0.0604

With MGESLFKGPRDYNPISSSICHLTNESDGHTTSLYGIGFGPFIITNKHLFRRNNGTLVVQSLHGVFKVKDTTTLQQHLVDGRDYIIIRMPKDFPPFPQKLKFREPQREERICLVTTNFQTKSMSSMVSDTSCTFPSGDGIFWKHWIQTKDGQCGSPLVSTRDGFIVGIHSASNFTNTNNYFTSVPKNFMELLTNQEAQQWVSGWRLNADSVLWGGHKVFMVKPEEPFQPVKEATQL [M83Y] as the variant, how does the “area with substrate ENCYFQS” value read?
Its value is 0.0553.

What about the “area with substrate ENHYFQS” value of the same variant?
Its value is 0.0498.

And the “area with substrate ENNYFQS” value?
The value was 0.0604.

What about the “area with substrate ENQYFQS” value of the same variant?
The value was 0.041.

And the “area with substrate ENSYFQS” value?
The value was 0.0538.

What does the source list for MGESLFKGPRDYNPISSSICHLTNESDGHTTSLYGIGFGPFIITNKHLFRRNNGTLVVQSLHGVFKVKDTTTLQQHLVDGRDMPIIRMPKDFPPFPQKLKFREPQREERICLVTTNFQTKSMSSMVSDTSCTFPSGDGIFWKHWIQTKDGQCGSPLVSTRDGFIVGIHSASNFTNTNNYFTSVPKNFMELLTNQEAQQWVSGWRLNADSVLWGGHKVFMVKPEEPFQPVKEATQL [I84P]?
area with substrate ENCYFQS: 0.0176; area with substrate ENDYFQS: 0.0267; area with substrate ENEYFQS: 0.0367; area with substrate ENQYFQS: 0.0366; area with substrate ENVYFQS: 0.0268; area with substrate ENYYFQS: 0.0376

With MGESLFKGPRDYNPISSSICHLTNESDGHTTSLYGIGFGPFIITNKHLFRRNNGTLVVQSLHGVFKVKDTTTLQQHLVDGRDMIIARMPKDFPPFPQKLKFREPQREERICLVTTNFQTKSMSSMVSDTSCTFPSGDGIFWKHWIQTKDGQCGSPLVSTRDGFIVGIHSASNFTNTNNYFTSVPKNFMELLTNQEAQQWVSGWRLNADSVLWGGHKVFMVKPEEPFQPVKEATQL [I86A] as the variant, how does the “area with substrate ENCYFQS” value read?
Its value is 0.0594.

And the “area with substrate ENDYFQS” value?
Its value is 0.0547.

And the “area with substrate ENEYFQS” value?
Its value is 0.0505.

What about the “area with substrate ENFYFQS” value of the same variant?
The value was 0.0397.

And the “area with substrate ENHYFQS” value?
The value was 0.05.

And the “area with substrate ENNYFQS” value?
Its value is 0.0566.

What about the “area with substrate ENQYFQS” value of the same variant?
Its value is 0.0528.

What about the “area with substrate ENRYFQS” value of the same variant?
The value was 0.0534.

And the “area with substrate ENSYFQS” value?
Its value is 0.0587.

And the “area with substrate ENTYFQS” value?
Its value is 0.0558.

And the “area with substrate ENVYFQS” value?
The value was 0.0643.

And the “area with substrate ENWYFQS” value?
The value was 0.0462.

What does the source list for MGESLFKGPRDYNPISSSICHLTNESDGHTTSLYGIGFGPFIITNKHLFRRNNGTLVVQSLHGVFKVKDTTTLQQHLVDGRDMIIIRMPKDFQPFPQKLKFREPQREERICLVTTNFQTKSMSSMVSDTSCTFPSGDGIFWKHWIQTKDGQCGSPLVSTRDGFIVGIHSASNFTNTNNYFTSVPKNFMELLTNQEAQQWVSGWRLNADSVLWGGHKVFMVKPEEPFQPVKEATQL [P93Q]?
area with substrate ENCYFQS: 0.0754; area with substrate ENDYFQS: 0.0507; area with substrate ENEYFQS: 0.054; area with substrate ENPYFQS: 0.0698; area with substrate ENQYFQS: 0.0572; area with substrate ENRYFQS: 0.0586; area with substrate ENSYFQS: 0.0669; area with substrate ENVYFQS: 0.0753; area with substrate ENWYFQS: 0.0791

Which “area with substrate ENCYFQS” value does the source give for MGESLFKGPRDYNPISSSICHLTNESDGHTTSLYGIGFGPFIITNKHLFRRNNGTLVVQSLHGVFKVKDTTTLQQHLVDGRDMIIIRMPKDFPMFPQKLKFREPQREERICLVTTNFQTKSMSSMVSDTSCTFPSGDGIFWKHWIQTKDGQCGSPLVSTRDGFIVGIHSASNFTNTNNYFTSVPKNFMELLTNQEAQQWVSGWRLNADSVLWGGHKVFMVKPEEPFQPVKEATQL [P94M] here?
Its value is 0.0638.

What about the “area with substrate ENDYFQS” value of the same variant?
The value was 0.0687.

And the “area with substrate ENEYFQS” value?
Its value is 0.0481.

What about the “area with substrate ENHYFQS” value of the same variant?
Its value is 0.059.

What about the “area with substrate ENPYFQS” value of the same variant?
The value was 0.0441.

And the “area with substrate ENQYFQS” value?
The value was 0.0661.

What about the “area with substrate ENRYFQS” value of the same variant?
The value was 0.0382.

What about the “area with substrate ENSYFQS” value of the same variant?
The value was 0.068.

And the “area with substrate ENVYFQS” value?
Its value is 0.0536.

What about the “area with substrate ENYYFQS” value of the same variant?
Its value is 0.0557.

What does the source list for MGESLFKGPRDYNPISSSICHLTNESDGHTTSLYGIGFGPFIITNKHLFRRNNGTLVVQSLHGVFKVKDTTTLQQHLVDGRDMIIIRMPKDFPPFPFKLKFREPQREERICLVTTNFQTKSMSSMVSDTSCTFPSGDGIFWKHWIQTKDGQCGSPLVSTRDGFIVGIHSASNFTNTNNYFTSVPKNFMELLTNQEAQQWVSGWRLNADSVLWGGHKVFMVKPEEPFQPVKEATQL [Q97F]?
area with substrate ENCYFQS: 0.0688; area with substrate ENEYFQS: 0.0537; area with substrate ENFYFQS: 0.0602; area with substrate ENQYFQS: 0.0732; area with substrate ENVYFQS: 0.0796
